This passage reports self-cleavage results from the RNAGym collection of RNA variant scans (doi:10.7554/elife.90254).

B1: LINE1-mini (parent)
chain: GGCAGAGCUCAACACAGCGUGGCAAAGUGGCUGUGGCUAGACUGCC

Read counts are not given, so values of variants with three or more changes are uncertain.

In the data set the parent is B1. As to the kind of experiment: self-cleavage, relative activity (ratio to wild type); higher = more cleavage; in vitro, sequencing; the parent is a self-cleaving ribozyme.
With GGCAGAGCUCAACACAGUGUGACGAAGUGGCUGUGGCUACAGUGCC, the self-cleavage was 0.02.
The value for GGCAGAGCUCAACACAGUGUUGCAAAGUGGCUGUGGCUAGACAGCC was 0.04; that for GGCAGAGCUCAACACAGUGUGGCAAAGUUGCGGUGGCUAGACUCCC was 0.03; that for GGCAGAGCUCAACACAGUGAGGCAACGUGGCUGUGGCUAUACUCCC was 0.05.
For GGCAGAGCUCAACACAGUGUAGCAAAUUAGCUGUGGCUAGACUGCC, the self-cleavage came to 2.86.
Take GGCAGAGCUCAACACAGUGAGGCAAAGUGGCUGUGGCUAGAAUGCC: the self-cleavage stood at 0.07.
For the variant GGCAGAGCUCAACACAGUGAGGCAAAGUGGCGUUGGCUAGACUCCC, the self-cleavage was found to be 0.01.
In the case of GGCAGAGCUCAACACAGUGUGGCAAAGUGGCGGCGGCUAGACGGCC, the self-cleavage worked out at 0.01.
On to GGCAGAGCUCAACACAGUGUGGCAAAGUGGCUGUGACUAGAGUGCC, for which the self-cleavage amounted to 0.04.
The value for GGCAGAGCUCAACACAGUGUGGCAAAGUGGCUGUGGCUAGACACCA was 0.08; that for GGCAGAGCUCAACACAGCAUGGCAUAGUGGCUGUGGCUAGACUGGC was 0.1.
For the variant GGCAGAGCUCAACACAGUGUGGCAAAGUGGCUGUGGCUAUAUAGCC, the self-cleavage amounted to 0.
Consider GGCAGAGCUCAACACAGUGUGGCAAAGUGGCUUUGGCUAGAAUGCC, for which the self-cleavage is 0.02.
GGCAGAGCUCAACACAGCAUGGCAAUAAGGCUGUGGCUAGACUGCC: the self-cleavage was found to be 0.4.
For GGCAGAGCUCAACACAGCAUGGCAGAGUGGCAGUGGCUAGACUGCC, the self-cleavage turned out to be 0.06.
Regarding GGCAGAGCUCAACACAGUGUGGCAAACUGGCUGUGGCUUGACUGCU, the self-cleavage came out at 0.32.
As to GGCAGAGCUCAACACAGUCUGGCAAAGUGGCUGUGGCCACACUGCC, the self-cleavage is 0.04.
For the variant GGCAGAGCUCAACACAGCAUGGCUAAGUGGCUGUGGCUGGACUGCC, the self-cleavage is 0.12.
Regarding GGCAGAGCUCAACACAGUGUGGCAAAGUGGCGGCGGUUAGACUACC, the self-cleavage amounted to 0.03.
Consider GGCAGAGCUCAACACAGUGUGGCAAAGUGGCUGUUUCUAGACUGCC, for which the self-cleavage is 0.05.
To GGCAGAGCUCAACACAGUGUGGCAAAGUGGCUGUUGCCACACUGCC belongs 0.01; to GGCAGAGCUCAACACAGUCUGGCAAAGUGGCUAUGGCUUGAGUGCC, 0.04.
Consider GGCAGAGCUCAACACAGUGCGGCAAAGUGACUGUGGCUAGACUGCC, for which the self-cleavage amounted to 0.78.
Turning to GGCAGAGCUCAACACAGUGUGGCAAAGGGGCCGAGACUAGACUGCC, the self-cleavage is 0.05.
GGCAGAGCUCAACACAGUGUGGCAAAGGGGCUGGGGCUAGACUGCC: the self-cleavage worked out at 0.05.
For GGCAGAGCUCAACACAGUAUGGCAAAGUGGCUGUGGCUAGACUUCC, the self-cleavage came to 0.08.
To GGCAGAGCUCAACACAGCAUGGCUCAGUGGCUGUGGCUAGACUACC belongs 0.12; to GGCAGAGCUCAACACAGUGUGGCAAAGUGCCUGUGGCUAGUCUGCC, 0.42.
Take GGCAGAGCUCAACACAGUGUUCCAAAGUGGCUGUGGUUAGACUGCC: the self-cleavage came to 0.05.
On to GGCAGAGCUCAACACAGCAUGGCACACUGGCUGUGGCUAGACUGCC, for which the self-cleavage was 0.37.
To GGCAGAGCUCAACACAGCAUGGCGACGAGGCUGUGGCUAGACUGCC belongs 1.13; to GGCAGAGCUCAACACAGUGUUGCAAAGUGGCUGUGGCUAAACUGCC, 0.05; to GGCAGAGCUCAACACAGUGUGGCAAAGUGGCUGUGUCUAGACUGCU, 0.06.
For the variant GGCAGAGCUCAACACAGUCUGGCACAGUGGCUGUGGCUAGACUGCC, the self-cleavage is 0.11.
For the variant GGCAGAGCUCAACACAGUAUGGCAAAGUGGCUGUGUCUAGACUGCC, the self-cleavage was 0.1.
The value for GGCAGAGCUCAACACAGUGAGGCAAAGUGGCUGUGGCUAGACCGCC was 0.14; that for GGCAGAGCUCAACACAGUUUGGCAAAGUGUCUGUGGCUAGACUGCC was 0.09; that for GGCAGAGCUCAACACAGUGUGAUAAAGUGGCUGUGGCUAGACUGCC was 0.93.
The value for GGCAGAGCUCAACACAGUGUGCCAAAGUGGCUGUGUCUAGACUGCC was 0.31; that for GGCAGAGCUCAACACAGUGUGCCAAAUUGGCUGUGGCUAGACUGCC was 0.23.
With GGCAGAGCUCAACACAGCAUGGCACAGUGGCUGUUGCUAGACUGCC, the self-cleavage came out at 0.02.
For the variant GGCAGAGCUCAACACAGUGUCGCAAAGUGGCUGUGGAUAGACUGCC, the self-cleavage amounted to 0.03.
In the case of GGCAGAGCUCAACACAGUGUAGCAAAAUGGUUGUGGCUAGACUGCC, the self-cleavage was found to be 0.12.
As for GGCAGAGCUCAACACAGCAUGGCAACGUGGUUGUGGCUAGACUGUC, the self-cleavage came to 1.34.
The value for GGCAGAGCUCAACACAGUGUUGCAAAGUGGCUGUGGCUAGACUACC was 0.14.
As to GGCAGAGCUCAACACAGCAUGGCAAUGUGGUUGUGGCUAGACUGCC, the self-cleavage came out at 0.26.
For the variant GGCAGAGCUCAACACAGUGUGGCAAAGUGCCUGUGGAUAGACUGCC, the self-cleavage is 0.05.
The value for GGCAGAGCUCAACACAGUGUGGCAAAGCGGCUGUGGCUAGGCUGCC was 0.11; that for GGCAGAGCUCAACACAGUCUGGCAAAUUGGCUGUGGCUACACUGAC was 0.05; that for GGCAGAGCUCAACACAGUAUGGCUAAGUGGAUGUGGCUAGACUGCC was 0.03.
With GGCAGAGCUCAACACAGUGUGGCAAAGUCGCAGUGGCUAUAUUGGC, the self-cleavage was determined as 0.02.
In the case of GGCAGAGCUCAACACAGUAUGGCAAAGUGUCUAAGACUAAACUGCC, the self-cleavage was 0.02.
Regarding GGCAGAGCUCAACACAGCAUGGCAAUCUGGCUGUGGCUAGACUGCC, the self-cleavage was found to be 0.21.
With GGCAGAGCUCAACACAGUAUUGCAAAGAGGCUGUGGCUAUACUGCC, the self-cleavage amounted to 0.05.
With GGCAGAGCUCAACACAGUGUGUCAAAGUGGCUGUGGGUAGACUGCC, the self-cleavage turned out to be 0.
As to GGCAGAGCUCAACACAGUGUGACAAAGUUGCUCUGGCUAGACUGCC, the self-cleavage is 0.02.
